# Experimental data taken from ChEMBL document CHEMBL1201862, “PubChem BioAssay data set” (2004).
#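 Grown in 96-well plates, cells were treated for 48 hours with each compound at five concentrations. Insufficient inhibition: endpoint recorded as highest concentration tested. GI50 is the concentration that inhibits growth by half.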 Activity calls are given as the source filed them. Cut-off read from the data, not from the text of the source: active = GI50 up to about 1.1 µM and inactive = higher.
# Tested on: NCI-H322M
# Assay: growth of human tumour cells (NCI), 48 h
row,SMILES,GI50
1,NNC(=O)c1ccc(OCc2nc3ccccc3[nH]2)cc1,inactive: > 100 µM
2,COC(=O)c1c(C#N)c(N)nc2c1CCC2,inactive: > 100 µM
3,CCN(CC)CCC(=O)N1C/C(=C/c2ccccc2)C(=O)/C(=C\c2ccccc2)C1,inactive: 4.54 µM
4,COc1cccc(C2c3cc4c(cc3OC(Nc3ccccc3)C2C)OCO4)c1OC (stereo not given),inactive: 21.7 µM
5,CCCCCCC(=O)OC[n+]1ccc(-c2c(COC(=O)NC(C)C)c(COC(=O)NC(C)C)c3n2CCC3)cc1,inactive: > 100 µM
6,NC12CCC(CC1=O)C2 (stereo not given),inactive: > 100 µM
7,COC(=O)C1(C)CCc2c(OC)ccc(OC)c2C1=O (stereo not given),inactive: > 100 µM
8,COc1cc(/C=N/N=C(\N)NO)cc(OC)c1OC,inactive: 17.4 µM
9,O=[N+]([O-])C(C(Cl)=C(Cl)Cl)=C(n1nnc2ccccc21)n1nnc2ccccc21,inactive: > 56.4 µM
10,Fc1c(F)c(F)c2c(c1F)CSc1nc3ccccc3n1-2,inactive: > 100 µM
11,CCOC(=O)N1CCN(P(=O)(Nc2ccc3[nH]c(NC(=O)OC)nc3c2)Oc2ccccc2)CC1 (stereo not given),inactive: > 100 µM
12,COc1ccc(C(C#N)NNC(=O)c2ccccc2O)cc1OC (stereo not given),inactive: 4.31 µM
13,N#CC1(O)CCCCCCCCCCC1,inactive: > 100 µM
14,C/C(=N\NC(=S)N1CCN(C2CCCCCC2)CC1)c1ccccn1,active: 0.01 µM
15,O=[N+]([O-])c1cc(C2(N3CCCCC3)CCCCC2)sc1Br,inactive: 12.7 µM
16,Clc1ccc(C2=Nc3ccccc3SC(c3cccs3)C2)cc1 (stereo not given),inactive: 15.3 µM
17,O=c1cc(N2CCCC2)[nH]c(=O)n1-c1ccc(F)cc1,inactive: > 100 µM
18,Cc1nc(C(N)=S)sc1C(=O)C/C(=N/N)C(=O)Nc1cccc(Cl)c1C,inactive: 97.7 µM
19,COc1ccc2c(c1)C(=O)Cc1ccccc1CC2,inactive: > 100 µM
20,Cc1cc(C)c(C2=NOC(c3ccccc3)(c3cc(=O)n(-c4ccccc4)s3)O2)c(C)c1 (stereo not given),inactive: > 100 µM
21,COc1cccc(CC(C)NCC(O)c2ccc(O)c(O)c2)c1 (stereo not given),inactive: 36.2 µM
22,COc1cc(O)c2c(=O)c3cccc(C)c3[nH]c2c1,inactive: 6.53 µM
23,COc1ccccc1/C=C(\C#N)C(=O)c1ccccc1,inactive: > 100 µM
24,CCOC(=O)c1cnccc1CC1(C#N)c2ccccc2C=CN1C(=O)c1ccccc1 (stereo not given),inactive: 45.5 µM

row,SMILES,GI50
1,COC(=O)C12C3C=CC(O3)C1C1C=CC2O1 (stereo not given),inactive: > 100 µM
2,Clc1ccc(CCN2CCOCC2)c(Cl)c1,inactive: > 100 µM
3,COC(=O)C1Cc2c(C)cccc2C1=O (stereo not given),inactive: > 100 µM
4,O=C(C1OC1c1ccc([N+](=O)[O-])cc1)C12CC3CC(CC(C3)C1)C2 (stereo not given),inactive: 20.2 µM
5,COc1cccc(-c2nc3c(C(=O)NCCN(C)C)cccc3[nH]2)c1,inactive: 9.18 µM
6,CCOC(=O)c1nc2cc(C(F)(F)F)ccc2nc1Nc1ccc(OC)c(OC)c1,inactive: > 100 µM
7,OCCOc1ccc(-c2cc(-c3ccccn3)nc(-c3ccccn3)c2)cc1,active: 0.0668 µM
8,COC1CCC(=C2C(=O)OC(C)(C)OC2=O)N1 (stereo not given),inactive: > 100 µM
9,N#Cc1sc2nc3ccccc3n2c1N,inactive: > 100 µM
10,COc1ccc2c(c1)C(=O)CC(N)C2 (stereo not given),inactive: > 100 µM
11,CC(=O)OC1CC2C(=O)CC1(C)C2(C)C (stereo not given),inactive: > 100 µM
12,Nc1nc(=O)c(/N=N/c2ccccc2)c(C(=O)O)[nH]1,inactive: 45.2 µM
13,COc1cc2ccc1OCc1cccc(n1)COc1ccc(cc1OC)/C=N\c1ccc(cc1)/N=C\2,inactive: > 100 µM
14,OC(CCNCc1ccccc1)c1ccc2ccccc2c1 (stereo not given),inactive: 23.4 µM
15,O=C(CCCc1cccc2[nH]c3c(c12)CN(Cc1ccccc1)CC3)c1ccc(F)cc1,inactive: > 100 µM
16,CC1=C(C)CC2(SC1)C(=O)c1ccccc1C2=O,inactive: > 100 µM
17,CC1=CC(C)(C)[C@H]2O[C@@]3(O)C[C@]4(C)[C@H]5C[C@@](C(C)C)(O[C@H]4c4ccoc4)O[C@H]4[C@]5(C3)O[C@@]1(O)[C@]24O,inactive: 68.7 µM
18,C=C1c2ccccc2Oc2nc3nc(N)c(C#N)c(N)c3c(N)c21,inactive: 32.1 µM
19,O=c1c2cc(-c3ccccc3)cnc2sn1-c1ccc([N+](=O)[O-])cc1,inactive: 31.8 µM
20,CCCC(=O)N/S(=N/S(=O)(=O)c1ccc(Cl)cc1)C(Cl)(Cl)Cl (stereo not given),inactive: > 100 µM
21,O=C1CCC(=O)N1n1c(Cc2ccccc2)n[nH]c1=O,inactive: > 100 µM
22,CN(C)c1ccc(/C=C(\C#N)C(=O)c2ccccc2)cc1Br,inactive: > 100 µM
23,N#C/C(C(=O)Nc1ccc(Cl)cc1)=C(/N)N1CCCCC1,inactive: > 100 µM
24,CCOC(=O)NC(=O)c1cn(C2CCCCC2)c(=O)[nH]c1=O,inactive: > 100 µM

row,SMILES,GI50
1,N#CC(C(=O)C(=O)Nc1c(Cl)cccc1Cl)c1ccccc1 (stereo not given),inactive: > 10 µM
2,COC(=O)C1=COC2OC3C(C(C)O)C(=O)OC34C=CC1C24 (stereo not given),inactive: > 100 µM
3,O=C1c2ccccc2CC12Cc1ccc3c(c1C2)CCC3 (stereo not given),inactive: 20 µM
4,CC1=C(/C=C/Cl)CC(Cl)C(C)(Cl)C1 (stereo not given),inactive: > 100 µM
5,CCN(CC)c1ccc2cc(-c3nc(O)c4ccccc4n3)c(=N)oc2c1,inactive: > 100 µM
6,CCCC(=O)Nc1cc(/C=C/C(=O)N2CC(CCl)c3c2cc(O)c2[nH]cc(C)c32)n(C)c1 (stereo not given),active: < 2.5e-05 µM
7,Cc1ccn2c(c1)nc1nc3ccccc3nc12,inactive: > 100 µM
8,COC1C(O)C(C)OC(O[C@H]2CC[C@@]3(C)C(CC[C@@H]4[C@@H]3CC[C@]3(C)[C@@H](C(C)OC5OC(CO)C(O)C(O)C5O)CC[C@]43O)C2)C1O (stereo not given in full),inactive: > 25 µM
9,CSc1nc(=S)[nH]c2[nH]nc(C)c12,inactive: > 100 µM
10,CCSc1nc(N)c2c(-c3ccccc3)c3c(nc2n1)CCC3,inactive: > 100 µM
11,O=c1ccn(CC2(CO)CCCC2)c(=O)[nH]1,inactive: > 100 µM
12,O=c1oc2c/c(=C\c3ccccn3)c(=O)c3cccc1c3-2,inactive: > 100 µM
13,C=C1C(=O)O[C@@H]2C[C@@H](C)[C@@H]3[C@@H](OC4OC(COC(C)=O)C(O)C(O)C4O)CC(=O)[C@@]3(C)C[C@H]12 (stereo not given in full),inactive: 14.1 µM
14,CCCCOP(=O)(OCCCC)/C(C#N)=C/c1ccco1,inactive: > 100 µM
15,Nc1nc(Sc2ccc([N+](=O)[O-])cn2)c2nc[nH]c2n1,inactive: 13.2 µM
16,O=c1cc(NNc2ccccc2)[nH]c(=S)[nH]1,inactive: > 100 µM
17,CC(NC(=O)c1ccc(OP(=O)(OCc2ccc([N+](=O)[O-])o2)N(C)CCCCCl)cc1)c1ccc(OCC2CCCCC2)c(C(N)=O)c1 (stereo not given),inactive: 12.3 µM
18,Cc1c(-c2ccccc2)[nH]n(C2=NCCN2)c1=O,inactive: > 100 µM
19,CCN(c1n[n+]2c(-c3ccccc3)csc2s1)c1n[n+]2c(-c3ccccc3)csc2s1,inactive: > 100 µM
20,O=C(/C=C/c1ccc(F)c(F)c1)OCCc1ccccc1,inactive: > 100 µM
21,O=C(c1ccco1)N1CCN(C(=O)c2ccco2)C1=S,inactive: 15.5 µM
22,Cc1ncc([N+](=O)[O-])n1CCN(C)C(=O)CCCn1ccnc1[N+](=O)[O-],inactive: > 100 µM
